# Laboratory results: the supplement of paper PMC3722116
# Growth of fresh clinical P. falciparum isolates by hypoxanthine uptake over 42 h; for most isolates 1.6-1,647 nM mefloquine, 0.044-87 nM artesunate, 10-10,256 nM chloroquine, 2.4-236 nM lumefantrine. EC50, lower = more sensitive; slope from the same fit, higher = steeper. No active / inactive call. Fits with a coefficient of variation above 100% are not listed here; 15-28% of fits exceed 15%. Isolates are numbered anew.
# Assays:
# artesunate [1] = compound: T1, C[C@H]1[C@H](OC(=O)CCC(=O)O)O[C@@H]2O[C@@]3(C)CC[C@H]4[C@H](C)CC[C@@H]1[C@@]24OO3 [artesunate]
# Procedure: (§1)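 Hypoxanthine uptake by fresh isolates, duplicate serial dilutions, 24 h of drug plus 18 h after the label; sigmoid fit per isolate.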
# mefloquine [2] = compound: T2, OC(c1cc(C(F)(F)F)nc2c(C(F)(F)F)cccc12)C1CCCCN1 [mefloquine]
# Procedure: as §1
# chloroquine [3] = compound: T3, CCN(CC)CCCC(C)Nc1ccnc2cc(Cl)ccc12 [chloroquine]
# Procedure: as §1
# artesunate [4] = compound: T1, artesunate; assay: slope of the dose-response curve (dimensionless); higher = steeper concentration-effect curve
# Procedure: as §1
# mefloquine [5] = compound: T2, mefloquine; assay: as above
# Procedure: as §1
# chloroquine [6] = compound: T3, chloroquine; assay: as above
# Procedure: as §1
Test System,EC50 of parasite growth (artesunate [1]) [µg/mL],EC50 of parasite growth (mefloquine [2]) [µg/mL],EC50 of parasite growth (chloroquine [3]) [µg/mL],slope (artesunate [4]),slope (mefloquine [5]),slope (chloroquine [6])
"Plasmodium falciparum isolate 407 (pfmdr1 allele: 86N, 1042N, pfmdr1 copies: 1)",0.00154,0.0152,0.0715,2.83,2.04,4
"Plasmodium falciparum isolate 430 (pfmdr1 allele: 86N, 1042N, pfmdr1 copies: 1)",0.00124,0.0204,0.0848,8.43,1.4,1.35
"Plasmodium falciparum isolate 67 (pfmdr1 allele: 86N, 1042N, pfmdr1 copies: 4)",0.00107,0.126,0.357,6.62,3.03,2.3
"Plasmodium falciparum isolate 482 (pfmdr1 allele: 86N, 1042N, pfmdr1 copies: 3)",0.00375,0.198,0.247,6.03,5.02,2.75
"Plasmodium falciparum isolate 432 (pfmdr1 allele: 86Y, pfmdr1 copies: 1)",0.000833,0.0237,0.318,7.6,2.71,4.33
"Plasmodium falciparum isolate 148 (pfmdr1 allele: 86N, 1042N, pfmdr1 copies: 3)",0.0115,0.216,0.157,7.54,10,5.47
"Plasmodium falciparum isolate 281 (pfmdr1 allele: 86N, 1042N, pfmdr1 copies: 3)",0.00258,0.0817,0.106,6.45,1.51,1.68
"Plasmodium falciparum isolate 69 (pfmdr1 allele: 86N, 1042N, pfmdr1 copies: 1)",0.00162,0.0101,0.0531,4.38,1.44,2.52
"Plasmodium falciparum isolate 357 (pfmdr1 allele: 86N, 1042N, pfmdr1 copies: 1)",0.00203,0.00867,0.142,4.4,2.87,2.5
"Plasmodium falciparum isolate 223 (pfmdr1 allele: 86N, 1042N, pfmdr1 copies: 1)",0.0011,0.018,0.0421,10,2.41,0.925
"Plasmodium falciparum isolate 104 (pfmdr1 allele: 86N, 1042N, pfmdr1 copies: 1)",0.00123,0.0113,0.0803,2.35,2.42,2.14
"Plasmodium falciparum isolate 377 (pfmdr1 allele: 86N, 1042N, pfmdr1 copies: 1)",0.000844,0.0572,0.35,10,5.21,2.45
"Plasmodium falciparum isolate 385 (pfmdr1 allele: 86N, 1042N, pfmdr1 copies: 1)",0.00334,0.0999,0.448,5.57,2.02,5.23
"Plasmodium falciparum isolate 456 (pfmdr1 allele: 86N, 1042N, pfmdr1 copies: 2)",0.00407,0.0698,0.352,10,2.36,6.7
"Plasmodium falciparum isolate 74 (pfmdr1 allele: 86N, 1042N, pfmdr1 copies: 1)",0.00161,0.0557,0.17,2.86,4.46,9.99
"Plasmodium falciparum isolate 403 (pfmdr1 allele: 86N, 1042N, pfmdr1 copies: 2)",0.00167,0.0141,0.0398,2.67,3.85,4.29
"Plasmodium falciparum isolate 226 (pfmdr1 allele: 86N, 1042N, pfmdr1 copies: 3)",0.00165,0.125,0.0773,4.28,2,1.99
"Plasmodium falciparum isolate 435 (pfmdr1 allele: 86N, 1042N, pfmdr1 copies: 4)",0.00649,0.0729,0.258,1.62,2.21,1.9
"Plasmodium falciparum isolate 358 (pfmdr1 allele: 86N, 1042N, pfmdr1 copies: 4)",0.000933,0.0218,0.272,1.81,1.39,2.42
"Plasmodium falciparum isolate 96 (pfmdr1 allele: 86N, 1042N, pfmdr1 copies: 2)",0.00227,0.065,0.135,4.51,2.39,2.44
"Plasmodium falciparum isolate 457 (pfmdr1 allele: 86N, 1042N, pfmdr1 copies: 2)",0.001,0.0593,0.354,10,2.18,9.44
"Plasmodium falciparum isolate 158 (pfmdr1 allele: 86N, 1042N, pfmdr1 copies: 1)",0.000557,0.0175,0.473,2.56,4.32,3.26
"Plasmodium falciparum isolate 80 (pfmdr1 allele: 1042D, pfmdr1 copies: 1)",0.00422,0.0283,0.229,7.24,4.4,3.62
"Plasmodium falciparum isolate 292 (pfmdr1 allele: 86N, 1042N, pfmdr1 copies: 1)",0.000554,0.00822,0.368,3.39,0.934,1.54

Test System,EC50 of parasite growth (artesunate [1]) [µg/mL],EC50 of parasite growth (mefloquine [2]) [µg/mL],EC50 of parasite growth (chloroquine [3]) [µg/mL],slope (artesunate [4]),slope (mefloquine [5]),slope (chloroquine [6])
"Plasmodium falciparum isolate 46 (pfmdr1 allele: 86N, 1042N, pfmdr1 copies: 2)",0.00275,0.0377,0.417,6.07,3.48,5.81
"Plasmodium falciparum isolate 34 (pfmdr1 allele: 86N, 1042N, pfmdr1 copies: 1)",0.00209,0.0689,0.179,5.88,9.98,6.4
"Plasmodium falciparum isolate 20 (pfmdr1 allele: 86N, 1042N, pfmdr1 copies: 1)",0.0137,0.0795,0.397,4.36,5.62,8.91
"Plasmodium falciparum isolate 81 (pfmdr1 allele: 86N, 1042N, pfmdr1 copies: 2)",0.00331,0.173,0.228,9.96,2.29,2.99
"Plasmodium falciparum isolate 334 (pfmdr1 allele: 86N, 1042N, pfmdr1 copies: 3)",0.00135,0.0657,0.085,4.5,2.13,2.52
"Plasmodium falciparum isolate 271 (pfmdr1 allele: 86N, 1042N, pfmdr1 copies: 3)",0.00282,0.0129,0.0482,2.57,1.68,4.05
"Plasmodium falciparum isolate 459 (pfmdr1 allele: 86N, 1042N, pfmdr1 copies: 3)",0.00177,0.0863,0.132,10,4.17,6.63
"Plasmodium falciparum isolate 391 (pfmdr1 allele: 86N, 1042N, pfmdr1 copies: 3)",0.00225,0.0382,0.311,4.7,1.86,2.7
"Plasmodium falciparum isolate 326 (pfmdr1 allele: 86N, 1042N, pfmdr1 copies: 2)",0.00174,0.0716,0.0878,9.99,4.16,1.75
"Plasmodium falciparum isolate 301 (pfmdr1 allele: 86N, 1042N, pfmdr1 copies: 3)",0.00212,0.116,0.115,9.66,9.95,4.55
"Plasmodium falciparum isolate 23 (pfmdr1 allele: 86N, 1042N, pfmdr1 copies: 1)",0.000728,0.0157,0.0801,5.46,3.8,2.93
"Plasmodium falciparum isolate 202 (pfmdr1 allele: 86N, 1042N, pfmdr1 copies: 1)",0.000715,0.0156,0.227,2.24,2.46,4.29
"Plasmodium falciparum isolate 188 (pfmdr1 allele: 86N, 1042N, pfmdr1 copies: 1)",0.000692,0.00625,0.0458,2.64,2.06,4.34
"Plasmodium falciparum isolate 455 (pfmdr1 allele: 86N, 1042N, pfmdr1 copies: 1)",0.0021,0.0375,0.206,3.67,1.72,5.14
"Plasmodium falciparum isolate 165 (pfmdr1 allele: 86N, 1042N, pfmdr1 copies: 2)",0.0029,0.0382,0.127,10,1.87,2.53
"Plasmodium falciparum isolate 325 (pfmdr1 allele: 1042D, pfmdr1 copies: 1)",0.00279,0.0676,0.515,6.56,4.62,2.53
"Plasmodium falciparum isolate 124 (pfmdr1 allele: 86N, 1042N, pfmdr1 copies: 2)",0.00121,0.0559,0.0912,7.15,2.81,3.05
"Plasmodium falciparum isolate 193 (pfmdr1 allele: 86N, 1042N, pfmdr1 copies: 2)",0.00193,0.0758,0.149,8.9,4.67,5.07
"Plasmodium falciparum isolate 262 (pfmdr1 allele: 86N, 1042N, pfmdr1 copies: 3)",0.00309,0.103,0.128,5.69,2.72,4.23
"Plasmodium falciparum isolate 121 (pfmdr1 allele: 86N, 1042N, pfmdr1 copies: 2)",0.00297,0.036,0.148,5.25,3.13,3.31
"Plasmodium falciparum isolate 55 (pfmdr1 allele: 86N, 1042N, pfmdr1 copies: 1)",0.00075,0.0062,0.0457,4.01,2.04,2.9
"Plasmodium falciparum isolate 227 (pfmdr1 allele: 86Y, pfmdr1 copies: 1)",0.000415,0.0138,0.164,3.68,1.72,2.93
"Plasmodium falciparum isolate 209 (pfmdr1 allele: 86N, 1042N, pfmdr1 copies: 4)",0.00671,0.208,0.244,10,4.76,3.1
"Plasmodium falciparum isolate 442 (pfmdr1 allele: 86N, 1042N, pfmdr1 copies: 1)",0.00138,0.0244,0.0764,2.16,3.39,2.94
